Paper PMC5700166
This is a selection; strong and weak results do not stand in their true shares. The list includes weakly bound sequences.

Assays:
Experiment in all cases: protein-binding microarray (PBM)
Details in all cases: PBM: ~300 nM protein, 6 mM HEPES pH 7.8, 80 mM KCl, 0.5 mM EDTA, 0.5 mM EGTA, 6% glycerol, 35 ng/ul poly-dIdC, 1% milk, 1 h, room temperature; Ap Aiptasia and Nv Nematostella (sea anemones) / Co Capsaspora / Aq Amphimedon (sponge) / Dm Drosophila / Hu human; RHD is the Rel homology domain; high values mean tight binding; most listed sequences are background and not binding sites; double strand, one strand shown
GST-Ap-NF-kB RHD = target: T1, GST-Ap-NF-kB RHD (UniProt A0A913YAJ5)
T1 sequence: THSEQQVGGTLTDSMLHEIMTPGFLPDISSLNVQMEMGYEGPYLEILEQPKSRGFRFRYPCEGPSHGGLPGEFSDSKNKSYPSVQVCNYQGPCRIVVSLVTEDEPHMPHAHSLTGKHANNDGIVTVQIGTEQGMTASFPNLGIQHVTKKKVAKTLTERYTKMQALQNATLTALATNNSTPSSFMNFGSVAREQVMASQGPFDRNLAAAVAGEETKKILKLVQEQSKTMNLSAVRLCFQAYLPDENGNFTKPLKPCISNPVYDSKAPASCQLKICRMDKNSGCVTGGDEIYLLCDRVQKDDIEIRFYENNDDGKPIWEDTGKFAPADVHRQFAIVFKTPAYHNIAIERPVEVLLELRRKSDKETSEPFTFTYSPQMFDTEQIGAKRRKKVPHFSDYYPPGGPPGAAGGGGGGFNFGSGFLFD

[1] = target: T2, GST-Nv-NF-kB (Cys allele) (UniProt E5G601)
T2 sequence: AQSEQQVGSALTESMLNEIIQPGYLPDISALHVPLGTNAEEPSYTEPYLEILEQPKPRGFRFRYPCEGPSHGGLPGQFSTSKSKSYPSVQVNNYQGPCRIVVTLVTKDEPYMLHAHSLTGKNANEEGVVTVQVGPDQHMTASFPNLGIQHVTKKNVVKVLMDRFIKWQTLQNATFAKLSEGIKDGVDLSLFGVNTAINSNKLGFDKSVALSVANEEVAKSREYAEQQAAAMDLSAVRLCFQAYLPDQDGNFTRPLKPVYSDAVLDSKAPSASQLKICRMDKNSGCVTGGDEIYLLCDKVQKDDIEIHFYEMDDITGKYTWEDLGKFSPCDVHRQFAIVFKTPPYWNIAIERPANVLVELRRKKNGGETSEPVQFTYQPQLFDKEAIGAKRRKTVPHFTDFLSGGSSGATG

GST-Co-NF-kB = target: T3, GST-Co-NF-kB (UniProt F1ARL5)
T3 sequence: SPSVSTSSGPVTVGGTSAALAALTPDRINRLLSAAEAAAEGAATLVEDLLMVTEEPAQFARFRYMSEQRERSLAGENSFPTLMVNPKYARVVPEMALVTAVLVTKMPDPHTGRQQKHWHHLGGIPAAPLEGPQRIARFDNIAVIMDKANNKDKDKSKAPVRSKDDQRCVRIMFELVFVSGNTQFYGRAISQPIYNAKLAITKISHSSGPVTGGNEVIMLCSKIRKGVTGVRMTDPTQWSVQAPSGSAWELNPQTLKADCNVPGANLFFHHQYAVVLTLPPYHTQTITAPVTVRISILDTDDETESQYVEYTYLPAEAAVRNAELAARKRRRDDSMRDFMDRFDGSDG

GST-Dm-Relish = target: T4, GST-Dm-Relish (UniProt Q94527)
T4 sequence: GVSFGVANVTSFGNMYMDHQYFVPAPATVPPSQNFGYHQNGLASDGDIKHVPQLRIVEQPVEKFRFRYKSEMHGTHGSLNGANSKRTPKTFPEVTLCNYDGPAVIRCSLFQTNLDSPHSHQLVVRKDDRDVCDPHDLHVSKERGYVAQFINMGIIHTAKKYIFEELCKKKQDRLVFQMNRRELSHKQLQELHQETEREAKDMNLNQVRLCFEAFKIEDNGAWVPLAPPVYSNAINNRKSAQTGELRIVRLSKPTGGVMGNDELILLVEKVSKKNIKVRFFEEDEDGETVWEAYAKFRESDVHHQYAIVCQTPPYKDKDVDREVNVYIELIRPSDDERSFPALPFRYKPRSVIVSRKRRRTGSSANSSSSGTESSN

GST-Aq-NF-kB = target: T5, GST-Aq-NF-kB (UniProt A9Y5G7)
T5 sequence: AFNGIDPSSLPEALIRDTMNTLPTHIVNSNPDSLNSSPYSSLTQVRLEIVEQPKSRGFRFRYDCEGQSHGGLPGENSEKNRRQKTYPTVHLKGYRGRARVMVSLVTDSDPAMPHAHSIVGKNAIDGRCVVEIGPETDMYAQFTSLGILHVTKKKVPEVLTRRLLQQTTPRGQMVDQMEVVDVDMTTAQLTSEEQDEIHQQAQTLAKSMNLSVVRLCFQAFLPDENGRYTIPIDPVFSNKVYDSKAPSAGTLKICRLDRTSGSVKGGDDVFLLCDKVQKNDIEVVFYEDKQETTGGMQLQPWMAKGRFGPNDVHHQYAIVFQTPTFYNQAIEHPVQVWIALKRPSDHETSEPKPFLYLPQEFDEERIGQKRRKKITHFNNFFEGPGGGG

Sequence	binding signal (GST-Ap-NF-kB RHD)	binding signal [1]	binding signal (GST-Co-NF-kB)	binding signal (GST-Dm-Relish)	binding signal (GST-Aq-NF-kB)
CCGATTAACATCAATGTCCGGTGTGATGTTAATCGGGTCTTGATTCGCTTGACGCTGCTG	0.0496 z-score	-0.599 z-score	0.278 z-score	0.221 z-score	-0.0512 z-score
CCGATTAACATCAGGAAAGCCCCTGATGTTAATCGGGTCTTGATTCGCTTGACGCTGCTG	7.03 z-score	9.89 z-score	1.05 z-score	8.43 z-score	9.59 z-score
CCGATTAACATCAAGGCAGTCGATGATGTTAATCGGGTCTTGATTCGCTTGACGCTGCTG	-0.167 z-score	-0.759 z-score	-0.235 z-score	-1.07 z-score	-0.454 z-score
CCGATTAACATCAATCGGTAAGTTGATGTTAATCGGGTCTTGATTCGCTTGACGCTGCTG	-0.755 z-score	-0.132 z-score	-0.152 z-score	-0.329 z-score	-0.113 z-score
CCGATTAACATCAGAGCCGGCTTTGATGTTAATCGGGTCTTGATTCGCTTGACGCTGCTG	0.0528 z-score	0.147 z-score	-1.98 z-score	-1.25 z-score	-0.286 z-score
CCGATTAACATCACACTGGTTATTGATGTTAATCGGGTCTTGATTCGCTTGACGCTGCTG	-0.0888 z-score	-0.866 z-score	-0.16 z-score	0.231 z-score	-0.358 z-score
CCGATTAACATCAGCTTATCAACTGATGTTAATCGGGTCTTGATTCGCTTGACGCTGCTG	-0.723 z-score	-0.14 z-score	-0.863 z-score	-0.743 z-score	-0.533 z-score
CCGATTAACATCACAGGCTTGCGTGATGTTAATCGGGTCTTGATTCGCTTGACGCTGCTG	-0.697 z-score	-0.1 z-score	-0.562 z-score	0.209 z-score	-0.889 z-score
CCGATTAACATCATTCATTGACCTGATGTTAATCGGGTCTTGATTCGCTTGACGCTGCTG	-0.14 z-score	-0.113 z-score	0.0275 z-score	-0.347 z-score	-0.428 z-score
CCGATTAACATCATACTCACTCGTGATGTTAATCGGGTCTTGATTCGCTTGACGCTGCTG	-0.43 z-score	-0.0735 z-score	0.45 z-score	-0.374 z-score	-0.448 z-score
CCGATTAACATCAAAGAGTCCTATGATGTTAATCGGGTCTTGATTCGCTTGACGCTGCTG	-0.39 z-score	-0.599 z-score	-0.219 z-score	-0.626 z-score	0.039 z-score
CCGATTAACATCATCTGAAGATTTGATGTTAATCGGGTCTTGATTCGCTTGACGCTGCTG	-0.483 z-score	-0.852 z-score	-1.13 z-score	-0.66 z-score	-0.606 z-score
CCGATTAACATCAGAGTCTGCTGTGATGTTAATCGGGTCTTGATTCGCTTGACGCTGCTG	-0.727 z-score	-0.791 z-score	-0.846 z-score	-0.53 z-score	-0.449 z-score
CCGATTAACATCATCCGAAATAATGATGTTAATCGGGTCTTGATTCGCTTGACGCTGCTG	-0.0911 z-score	-0.717 z-score	-0.54 z-score	-0.838 z-score	-0.372 z-score
CCGATTAACATCACAGGAATTTCTGATGTTAATCGGGTCTTGATTCGCTTGACGCTGCTG	-0.0693 z-score	0.602 z-score	0.442 z-score	0.67 z-score	0.941 z-score
CCGATTAACATCAGTAAGCAAGCTGATGTTAATCGGGTCTTGATTCGCTTGACGCTGCTG	-0.733 z-score	-0.0616 z-score	-1.12 z-score	-0.777 z-score	-0.346 z-score
CCGATTAACATCATAATCCATTGTGATGTTAATCGGGTCTTGATTCGCTTGACGCTGCTG	-0.869 z-score	-0.824 z-score	-0.2 z-score	-0.363 z-score	-0.376 z-score
CCGATTAACATCACTCAATTCGTTGATGTTAATCGGGTCTTGATTCGCTTGACGCTGCTG	-0.339 z-score	-0.842 z-score	-0.0201 z-score	-0.401 z-score	-0.265 z-score
CCGATTAACATCATGGCTAACCTTGATGTTAATCGGGTCTTGATTCGCTTGACGCTGCTG	-0.29 z-score	-0.0594 z-score	-1.05 z-score	-0.792 z-score	-0.284 z-score
CCGATTAACATCAAATGCAGTTTTGATGTTAATCGGGTCTTGATTCGCTTGACGCTGCTG	-1.79 z-score	-0.752 z-score	-1.27 z-score	-0.561 z-score	-0.685 z-score
CCGATTAACATCAGCGTGAGTTGTGATGTTAATCGGGTCTTGATTCGCTTGACGCTGCTG	-0.00214 z-score	-0.303 z-score	0.194 z-score	0.128 z-score	-0.0705 z-score
CCGATTAACATCATAATGATCTCTGATGTTAATCGGGTCTTGATTCGCTTGACGCTGCTG	0.0854 z-score	-0.587 z-score	-1.11 z-score	-1.4 z-score	-0.627 z-score
CCGATTAACATCAAAGTCACTGTTGATGTTAATCGGGTCTTGATTCGCTTGACGCTGCTG	-0.511 z-score	-0.702 z-score	-0.359 z-score	0.981 z-score	-0.366 z-score
CCGATTAACATCATGGATTAATGTGATGTTAATCGGGTCTTGATTCGCTTGACGCTGCTG	-1 z-score	-0.247 z-score	-0.193 z-score	0.487 z-score	-0.461 z-score
CCGATTAACATCAGAAGTAGGGTTGATGTTAATCGGGTCTTGATTCGCTTGACGCTGCTG	0.418 z-score	0.373 z-score	0.258 z-score	-0.178 z-score	-0.0133 z-score
CCGATTAACATCACGACTAGTTCTGATGTTAATCGGGTCTTGATTCGCTTGACGCTGCTG	-0.843 z-score	-0.381 z-score	-0.713 z-score	-0.614 z-score	-0.42 z-score
CCGATTAACATCATACACGATGATGATGTTAATCGGGTCTTGATTCGCTTGACGCTGCTG	-0.623 z-score	0.597 z-score	0.155 z-score	-0.358 z-score	-0.325 z-score
